In PubChem BioAssay AID624472 (The Scripps Research Institute Molecular Screening Center, 2012) one finds inhibition data, which are given here for one compound.

For this experiment, the target named is Diacylglycerol lipase-beta (Mus musculus) (UniProt Q91WC9). Briefly: ABHD6 inhibition in mouse proteome, late-stage follow-up, selectivity assay for DAGLb inhibitor project, biochemical, gel-based competitive ABPP, fluorescence, enantiomers (AID 624472). The following applies: at 10 µM (top of the series).
Sequence of UniProt Q91WC9 (Q91WC9 whole entry, looked up): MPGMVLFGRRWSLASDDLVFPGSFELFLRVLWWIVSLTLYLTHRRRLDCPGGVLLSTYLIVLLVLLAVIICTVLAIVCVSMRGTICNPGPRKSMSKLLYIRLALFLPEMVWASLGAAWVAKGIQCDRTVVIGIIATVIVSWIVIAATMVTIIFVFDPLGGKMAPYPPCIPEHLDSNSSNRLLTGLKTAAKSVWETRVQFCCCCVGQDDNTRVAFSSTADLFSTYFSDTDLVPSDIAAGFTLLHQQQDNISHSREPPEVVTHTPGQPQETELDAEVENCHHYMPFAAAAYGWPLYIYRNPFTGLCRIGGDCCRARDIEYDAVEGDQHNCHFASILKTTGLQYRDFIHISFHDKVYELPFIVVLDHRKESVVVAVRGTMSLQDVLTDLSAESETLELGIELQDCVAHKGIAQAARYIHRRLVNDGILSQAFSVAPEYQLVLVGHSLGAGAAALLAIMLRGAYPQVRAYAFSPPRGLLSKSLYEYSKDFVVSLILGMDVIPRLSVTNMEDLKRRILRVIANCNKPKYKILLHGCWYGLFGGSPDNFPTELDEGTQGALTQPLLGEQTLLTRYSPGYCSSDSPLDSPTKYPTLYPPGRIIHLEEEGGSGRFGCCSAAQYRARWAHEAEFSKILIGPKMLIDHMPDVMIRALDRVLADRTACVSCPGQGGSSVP

Some entries of the source have several records that differ or are many. They are shown here; other results are not. The source may hold further records. Results that share an entry are repeated measurements across runs, samples, wells, individuals or studies. Brackets tell where a record comes from. Letters hold for one entry only.

For the compound `O=C(N1CCCCC1Cc1ccccc1)n1cc(-c2ccc(Br)cc2)nn1` (stereo unspecified), the inhibition is 100% [sample A] and inactive: 50% [sample B] and 100% [sample C].

In general, inhibition refers to the relative decrease from the control value, in per cent. Lower therefore signals little suppression.
